# Results from the RNAGym collection of RNA variant scans (doi:10.7554/elife.90254).
# The source gives no read counts; variants with many changes may rest on few reads.
# B1: LINE1-mini (parent)
# chain: GGCAGAGCUCAACACAGCGUGGCAAAGUGGCUGUGGCUAGACUGCC
# Variants of: B1
# Assay: self-cleavage, relative activity (ratio to wild type); higher = more cleavage; in vitro, sequencing; the parent is a self-cleaving ribozyme
row,Variant,self-cleavage
1,G17C G19U G29U G40U,0.01
2,G7C G19C G22C G44U C46U,0.34
3,G17C C23A G36C C42G,0.01
4,U20C U32A C46A,0.05
5,C18G G27U G40U C45U C46U,0.06
6,G21C U32C G36A,0.05
7,G5U A12U G33U,0.02
8,G17C G35C G44C C45U C46G,0.02
9,C3G C10U A12C A24C A25G,0.03
10,A4G U9C C45U,0.01
11,C13A U28G G30U G35U C37A G44C C46A,0.03
12,A16C G19A U28G,0.04
13,C8G G36A G40A C45U,0.12
14,C15A C18G C37U C42U,0.18
15,G7A C10U G17U A25U U34A,0.03
16,C10A U20A A41G,0.03
17,G1U C15A G27C G40A,0.01
18,C13A G33U U43G C46G,0.01
19,G1C U9G U20G,0.02
20,G1U A14C C31A,0.01
21,C8A A24U G27U G29C G36U C45U,0.21
22,C13U C23U U32G,0.12
23,C15G G17A C18U C42A U43A,0.05
24,A14U G17U G19C,0.22

row,Variant,self-cleavage
1,G17U U20A G22C G27U,0.73
2,G21A U32A G36U,0.01
3,G5C A6U G7C G19A C37U A39U C42G,0.18
4,A11C G17C C37G,0
5,C8A G22C A39G C42G,0.14
6,C18G U38A G40C,0.05
7,A6G A12U A24C U38G C42A,0.01
8,A4U C8G U28C C46A,0.03
9,G7A A14U A16C G19C C23G C42G,0.06
10,G19A C31G U38G,0.03
11,G7C A11G A12G C13G A24G G36U,0.01
12,G2U C3U A25C,0.17
13,C13A C31A G35U G44U,0.01
14,A6U A11C C45U,0.03
15,G1C G5C G7C C13U,0.02
16,G30C G36C C37A C42A U43G,0.04
17,G5A G33U U38G C42A,0.01
18,A12G C31G U34G,0.06
19,C8G G21A A24C G44A C46U,0.02
20,C3A C15A G22A,0.08
21,A14C G27A U34A,0.03
22,C8A A26C U32C U38A A39G,0.53
23,A24C G40C C46G,0.01
24,C23G U34C A39C,0.09

row,Variant,self-cleavage
1,U9C U20A C31U G36U U38C U43A,0
2,G1C G5A U20A,0.01
3,C3A G17U G27C U32G,0.07
4,A12U G21U G35A,0.08
5,G7C A11U A14C G17C G22C G44U,0.01
6,C15A A24G G33C G35C G40C,0
7,G36A U38A A41C,0.01
8,U20A G35A A39U G44U,0.03
9,C8G C10U G44A,0.03
10,G1C C10A G27U,0
11,U9G U34G G35U,0.09
12,G7C A14G A41U,0.18
13,C13A C23A C31U,0.08
14,G17U G30C C46G,0.1
15,C3U C15G U20A,0.04
16,C8U U9G C15U C46U,0.07
17,C23A U28G G33U,0.06
18,U9C A16C U20C,0.03
19,C18A U20G G22U G29C,0.28
20,U9C G22U A41G G44A,0.02
21,G1C G5U C13U A26U,0.03
22,A16U A25C A26C C45U,0.06
23,C8A C13A C46U,0.16
24,A16C C18U G22A A25C,0.02

row,Variant,self-cleavage
1,A11C C13G G19U C31A U34G U43G,0
2,G2A C3G A41C,0.35
3,G5A C13G C15U C18A C31A U38A,0.03
4,G19C C23G G33U,0.09
5,C3A G27U G30A G40A,0.16
6,G2A C8A A12G,0.05
7,A16U A26C G30C U38C,0.19
8,G2C C8G A11C A24C,0.02
9,C3G A24G G35A,0.09
10,C8A C10U G36U U43A,0.62
11,C3G A4C U38A,0.14
12,G5A C37A A39U,0.06
13,C15U G22C U34G C46U,0.03
14,G2C C18U C31U,0.02
15,C13G U20C G35U,0.62
16,A6U C10G C13G G21C C37U,0.01
17,G5U C8G C10A C13A A24G A25U,0
18,A14C G29C U34C,0
19,C10G A11C G19U U32G,0.01
20,G1A C13A C23A G33A G35A,0.06
21,G29U C31G C37U G40C,0.02
22,A4U A11U G17U,0.06
23,A26G G35A G40A A41G,0.02
24,G5A C8G G30C U34G,0.04

row,Variant,self-cleavage
1,G2C C15U A16G,0.04
2,G5U G33U A39G,0.08
3,G2C C10U A25G G40A C45G,0.02
4,A16C G29U C42G,0.07
5,G7A U32A C37U,0.05
6,C8A C18G G35C,0.08
7,C10A C15A G44U,0
8,U28C G30A G44A,0.21
9,C3G G22U G40U,0.32
10,G1U C23U A41U,0.82
11,C18U G22C G36A,0.08
12,A12C A26C G44C,0.02
13,C13A G27U G35A G44U,0.07
14,A6U C13U C31G,0.06
15,G1A U9A C13G,0.52
16,G2A U32C G33U G44A,0.23
17,C18U U28C A41C,0.04
18,A6C A11C G21A U32G G44C,0
19,G2C C18A U34A G44C,0.12
20,G5U G30A G44U,0.05
21,C8U U9A A24U C37G,0.02
22,C10A C18U U28A,0.03
23,U9C C31A G36U,0.02
24,C8U A24U G36A,0.94

row,Variant,self-cleavage
1,G1C A16U U28G G44U,0.02
2,C15G C18A C37A,0.06
3,A11C C13U C31U,0.04
4,G5A C13G A16G U34C U43A,0.02
5,G7A A25U A26C G29U G30C,0.17
6,C3A C15U C18U,0.06
7,A14U A16U C23U G33U,0.06
8,G2C A4U A12G A26C,0.25
9,G5C A11C A14U,0.01
10,U9C C15A A26C G30U G36A,0.01
11,G1A G7U C8A A39G,0.16
12,A4C G7A A41C G44C,0.19
13,C10U G21U G22A U32A G36U C42G,0.01
14,G7U C31A G40U,0.48
15,C8U A24U C31U,0.07
16,G2C A12C A14U A24G G27U G29C G44C C45A,0.01
17,G5A U38G G40U,0.13
18,G7C G19U G35A C37U,0.03
19,A25G G35C C46A,0.19
20,A12C C15A U34A C46A,0.03
21,A14U G27U G29C A39G C45G,0.03
22,U9G U28A G36A G40A C45U,0.34
23,A16G A39C C42A G44U,0.07
24,U9A G19C G44C,0.03

row,Variant,self-cleavage
1,U9G G19U A41U,0.04
2,C13A C18A G29U,0.14
3,G19C A25G G29C C31G A39U,0.03
4,A6U C13G G22C G33A C42U G44U,0.07
5,G7A U20A C23A C37G U38A,0.01
6,A4C U9A G35A,0.04
7,A11G G17U A24C G40A G44A C45U,0
8,U9G A24G U32C G35U U43A,0.06
9,A25U C31G U34G G44U,0.03
10,A4G G17C C42G,0.06
11,C3A G5C G22A G29U,0.15
12,C3G A11C G19U G27A U28A C37G A41U,0
13,U9C C13G G35C C37A,0
14,C8U A14G C23U U34G G36U G40U C46G,0.07
15,C13U A14C G21U,0.13
16,A4U U28C U32A A39G,0.07
17,C8A C18U G21U G33A,0.05
18,C13G C18G A26U,0.03
19,G7C A16C U32C,0.17
20,G30C C42U U43G C46A,0.41
21,G7A C23G C37A U43C,0.12
22,C10U U20G A39G,0.07
23,G2A G29C G30A,0.42
